PubChem BioAssay (Tox21)
“And” between values parts separate entries of the source, which are not always exact repeats. Identical values can stand only once. Inconclusive means that the source gave no clear call. Such entries were picked first, then a sample of the others. For some of these results: Potencies beside an inconclusive call are fits to weak or partial responses and may not hold up. The source made the active and inactive calls. Unless noted, the call rests on the fitted dose curve; in most records, active means well fitted curve in the direction sought with a large enough effect in the repeat runs; inconclusive means weak or mixed curves; inactive means no such curve, though single readings can be large; an effect the other way counts as inactive or inconclusive.

How the values were obtained:
[1] = qHTS assay for small molecule agonists of the p53 signaling pathway (AID 651631; calls by dose curve; further: nearly all actives have a fitted effect of over 15% in size; further: potency means the concentration at half of the fitted maximal effect); details: HCT-116 p53RE-bla reporter, beta-lactamase FRET ratio, 16 h; activation: at 73.3 µM (top of the series) unless noted
Outline: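 Beta-lactamase reporter activity under p53 response elements was quantified in HCT-116 cells by FRET fluorescence, following 16 h incubation with test compounds at 37 °C and 2 h substrate development at room temperature.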

[2] = qHTS assay for small molecule disruptors of the mitochondrial membrane potential (AID 720635); details: HepG2 mitochondrial membrane potential, Mito-MPS dye ratio; ratio activity, negative = MMP loss: at 83.2 µM (top of the series) unless noted; further: potency means the concentration at half of the fitted maximal effect
Outline: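 Mitochondrial membrane potential tracked with Mito-MPS dye, red aggregates (ex 540/em 590 nm) against green monomers (ex 490/em 535 nm). Compound treatment 1 hr at 37C, dye 30 min in HepG2.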

[3] = qHTS assay to identify small molecule antagonists of the thyroid receptor (TR) signaling pathway - cell viability counter screen (AID 743064); details: GH3.TRE-Luc viability, CellTiter-Fluor, 24 h; activity change, negative = cytotoxic: at 70.3 µM (top of the series) unless noted; further: nearly all actives have a fitted effect of over 50% in size; further: potency means the concentration at half of the fitted maximal effect
Outline: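 CellTiter-Fluor readout, 30 min at 37 °C/5% CO2, following 23.5 h incubation of GH3.TRE-Luc cells with test compound and 1 nM T3 (final).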

[4] = target: Glucocorticoid receptor (Homo sapiens) (UniProt P04150); experiment: qHTS assay to identify small molecule antagonists of the glucocorticoid receptor (GR) signaling pathway (AID 720692; active means well fitted inhibition curve with a large enough effect in the signal ratio in the repeat runs, not every such curve was filed as active; inconclusive means weak or mixed curves, or effect the other way; inactive means no such curve, though single readings can be large or run the other way; the % refers to the signal ratio; further: potency means the concentration at half of the fitted maximal effect; on activity change, negative = inhibition: on the % scale 0 is the no-effect control and ±100 the full control effect); details: GR-bla HeLa, beta-lactamase FRET ratio, dexamethasone-stimulated, 18 h; activity change, negative = inhibition: at 58.5 µM (top of the series) unless noted
Chain of UniProt P04150 (P04150 whole entry, looked up): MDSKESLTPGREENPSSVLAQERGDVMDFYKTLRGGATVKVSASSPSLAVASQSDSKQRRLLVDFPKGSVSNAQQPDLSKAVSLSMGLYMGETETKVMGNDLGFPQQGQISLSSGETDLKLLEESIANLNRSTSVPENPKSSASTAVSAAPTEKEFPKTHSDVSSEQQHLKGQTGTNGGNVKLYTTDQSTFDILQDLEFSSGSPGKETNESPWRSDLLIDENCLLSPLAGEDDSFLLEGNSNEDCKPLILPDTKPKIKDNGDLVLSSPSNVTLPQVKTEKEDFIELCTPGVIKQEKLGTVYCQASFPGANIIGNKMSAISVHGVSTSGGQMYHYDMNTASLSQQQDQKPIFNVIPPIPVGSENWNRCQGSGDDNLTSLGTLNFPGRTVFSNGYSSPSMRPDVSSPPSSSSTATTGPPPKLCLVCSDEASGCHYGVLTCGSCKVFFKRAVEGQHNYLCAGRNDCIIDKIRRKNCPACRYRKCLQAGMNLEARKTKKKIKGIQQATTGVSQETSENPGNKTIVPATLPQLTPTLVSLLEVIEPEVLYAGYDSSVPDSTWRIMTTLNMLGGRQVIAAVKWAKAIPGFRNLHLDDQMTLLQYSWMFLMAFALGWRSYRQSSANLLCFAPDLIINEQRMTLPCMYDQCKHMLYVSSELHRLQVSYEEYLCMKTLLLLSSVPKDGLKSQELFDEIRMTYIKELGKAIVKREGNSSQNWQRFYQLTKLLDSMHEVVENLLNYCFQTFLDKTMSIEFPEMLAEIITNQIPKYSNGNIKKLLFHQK
Outline: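 Read-out: beta-lactamase FRET substrate fluorescence, 2 h at room temperature, in HeLa cells stably carrying a GRE-driven bla reporter. Compounds were co-incubated with 5 nM dexamethasone agonist (final) for 18 h at 37 C.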

[5] = target: Estrogen receptor (Homo sapiens) (UniProt P03372); experiment: qHTS assay to identify small molecule agonists of the estrogen receptor alpha (ER-alpha) signaling pathway using the BG1 cell line (AID 743079); details: BG1Luc4E2 cells, ERE-luciferase agonist, 22 h; activation: at 70.3 µM (top of the series) unless noted; further: nearly all actives have a fitted effect of over 20% in size; further: potency means the concentration at half of the fitted maximal effect; on activation: on the % scale 0 is the no-effect control and ±100 the full control effect
Chain of UniProt P03372 (P03372 whole entry, looked up): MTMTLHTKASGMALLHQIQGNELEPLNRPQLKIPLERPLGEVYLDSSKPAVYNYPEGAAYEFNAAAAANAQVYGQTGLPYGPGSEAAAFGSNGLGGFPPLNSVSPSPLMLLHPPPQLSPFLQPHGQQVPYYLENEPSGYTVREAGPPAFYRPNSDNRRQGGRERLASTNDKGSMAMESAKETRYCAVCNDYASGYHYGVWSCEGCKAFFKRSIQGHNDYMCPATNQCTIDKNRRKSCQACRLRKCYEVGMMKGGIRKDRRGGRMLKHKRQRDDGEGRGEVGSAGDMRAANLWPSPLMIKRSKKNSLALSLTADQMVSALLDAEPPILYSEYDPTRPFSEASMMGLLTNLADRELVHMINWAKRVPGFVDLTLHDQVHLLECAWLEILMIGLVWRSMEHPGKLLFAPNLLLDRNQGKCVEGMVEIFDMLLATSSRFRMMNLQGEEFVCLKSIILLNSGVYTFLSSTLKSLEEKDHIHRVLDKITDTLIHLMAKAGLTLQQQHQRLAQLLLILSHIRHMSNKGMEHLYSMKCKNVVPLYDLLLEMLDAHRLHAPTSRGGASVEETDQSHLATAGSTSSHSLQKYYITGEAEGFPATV

[6] = qHTS assay to identify small molecule antagonists of the estrogen receptor alpha (ER-alpha) signaling pathway using the BG1 cell line - cell viability counter screen (AID 743081); details: BG1Luc4E2 viability, CellTiter-Fluor, 22 h; activity change, negative = cytotoxicity: at 70.3 µM (top of the series) unless noted;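 further: compound given together with 17beta-estradiol as the ER stimulus; nearly all actives have a fitted effect of over 45% in size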; further: potency means the concentration at half of the fitted maximal effect
[7] = target: Peroxisome proliferator-activated receptor gamma (Homo sapiens) (UniProt P37231); experiment: qHTS assay to identify small molecule antagonists of the peroxisome proliferator-activated receptor gamma (PPARg) signaling pathway (AID 743191; calls by dose curve; further: on the % scale 0 is the no-effect control and ±100 the full control effect; nearly all actives have a fitted effect of over 30% in size); details: HEK293H PPARg-UAS-bla, beta-lactamase ratio, antagonist, 17 h; ratio activity, negative = inhibition: at 62.6 µM (top of the series) unless noted
Chain of UniProt P37231 (P37231 whole entry, looked up): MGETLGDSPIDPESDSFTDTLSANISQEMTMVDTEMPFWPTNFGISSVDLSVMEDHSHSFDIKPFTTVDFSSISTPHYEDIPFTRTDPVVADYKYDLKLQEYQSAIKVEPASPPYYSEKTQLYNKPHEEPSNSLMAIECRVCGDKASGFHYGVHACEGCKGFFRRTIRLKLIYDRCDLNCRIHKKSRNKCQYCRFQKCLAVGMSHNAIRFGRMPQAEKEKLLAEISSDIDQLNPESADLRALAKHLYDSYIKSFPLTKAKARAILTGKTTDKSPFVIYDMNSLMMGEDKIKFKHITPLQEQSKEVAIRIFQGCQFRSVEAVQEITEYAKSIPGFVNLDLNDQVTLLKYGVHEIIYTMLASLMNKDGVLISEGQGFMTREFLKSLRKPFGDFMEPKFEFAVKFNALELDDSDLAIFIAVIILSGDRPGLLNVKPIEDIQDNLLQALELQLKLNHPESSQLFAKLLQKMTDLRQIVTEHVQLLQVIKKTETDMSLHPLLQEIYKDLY
Outline: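 Beta-lactamase reporter under UAS control in HEK293H PPARg-bla cells; compound treatment 17 h at 37C. Read-out: fluorescence intensity after 1 h room-temperature incubation with LiveBLAzer B/G FRET substrate.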

[8] = qHTS assay for small molecule agonists of the antioxidant response element (ARE) signaling pathway (AID 743202; active means well fitted activation curve with a large enough effect in the signal ratio in the repeat runs, not every such curve was filed as active; inconclusive means weak or mixed curves, or effect the other way; inactive means no such curve, though single readings can be large or run the other way; the % refers to the signal ratio; further: on the % scale 0 is the no-effect control and ±100 the full control effect); details: HepG2 ARE-bla reporter, beta-lactamase FRET, 16 h; activation: at 73.3 µM (top of the series) unless noted
Outline: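 After 16 hours of compound treatment at 37 C, HepG2 cells with a stably integrated ARE-driven beta-lactamase reporter were loaded 2 hours at room temperature with LiveBLAzer B/G FRET substrate and fluorescence intensity measured.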

[9] = target: Vitamin D3 receptor (Homo sapiens) (UniProt P11473); experiment: qHTS assay to identify small molecule antagonists of the vitamin D receptor (VDR) signaling pathway (AID 743223; active means well fitted inhibition curve with a large enough effect in the signal ratio in the repeat runs, not every such curve was filed as active; inconclusive means weak or mixed curves, or effect the other way; inactive means no such curve, though single readings can be large or run the other way; the % refers to the signal ratio; further: potency means the concentration at half of the fitted maximal effect; on activity change, negative = inhibition: on the % scale 0 is the no-effect control and ±100 the full control effect); details: VDR-UAS-bla HEK293T, beta-lactamase FRET ratio, 16 h; activity change, negative = inhibition: at 61 µM (top of the series) unless noted
Chain of UniProt P11473 (P11473 whole entry, looked up): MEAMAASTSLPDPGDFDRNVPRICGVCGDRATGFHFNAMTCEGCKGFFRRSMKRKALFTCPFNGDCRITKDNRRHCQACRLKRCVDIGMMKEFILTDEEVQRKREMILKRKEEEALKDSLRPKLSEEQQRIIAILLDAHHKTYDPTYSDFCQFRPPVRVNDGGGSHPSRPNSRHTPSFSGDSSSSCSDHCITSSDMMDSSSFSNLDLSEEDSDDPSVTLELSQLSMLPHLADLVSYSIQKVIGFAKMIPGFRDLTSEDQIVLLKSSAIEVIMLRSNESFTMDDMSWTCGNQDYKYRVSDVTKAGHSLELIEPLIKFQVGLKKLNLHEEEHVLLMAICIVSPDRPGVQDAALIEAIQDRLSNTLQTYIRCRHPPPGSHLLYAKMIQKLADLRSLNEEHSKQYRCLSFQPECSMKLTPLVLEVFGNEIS
Outline: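 Inhibition of agonist-driven VDR signalling is scored in VDR-bla cells: 3 nM final 1alpha,25-dihydroxyvitamin D3 plus compound, 16 h at 37C, then beta-lactamase detection by FRET substrate fluorescence after 2 h.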

[10] = target: Progesterone receptor (Homo sapiens) (UniProt P06401); experiment: qHTS assay to identify small molecule antagonists of the progesterone receptor (PR) signaling pathway (AID 1346795; active means well fitted inhibition curve with a large enough effect in the signal ratio in the repeat runs, not every such curve was filed as active; inconclusive means weak or mixed curves; the % refers to the signal ratio; further: potency means the concentration at half of the fitted maximal effect); details: PR-UAS-bla HEK293T, beta-lactamase FRET ratio, 16 h; activity change, negative = inhibition: at 92.4 µM (top of the series) unless noted
Chain of UniProt P06401 (P06401 whole entry, looked up): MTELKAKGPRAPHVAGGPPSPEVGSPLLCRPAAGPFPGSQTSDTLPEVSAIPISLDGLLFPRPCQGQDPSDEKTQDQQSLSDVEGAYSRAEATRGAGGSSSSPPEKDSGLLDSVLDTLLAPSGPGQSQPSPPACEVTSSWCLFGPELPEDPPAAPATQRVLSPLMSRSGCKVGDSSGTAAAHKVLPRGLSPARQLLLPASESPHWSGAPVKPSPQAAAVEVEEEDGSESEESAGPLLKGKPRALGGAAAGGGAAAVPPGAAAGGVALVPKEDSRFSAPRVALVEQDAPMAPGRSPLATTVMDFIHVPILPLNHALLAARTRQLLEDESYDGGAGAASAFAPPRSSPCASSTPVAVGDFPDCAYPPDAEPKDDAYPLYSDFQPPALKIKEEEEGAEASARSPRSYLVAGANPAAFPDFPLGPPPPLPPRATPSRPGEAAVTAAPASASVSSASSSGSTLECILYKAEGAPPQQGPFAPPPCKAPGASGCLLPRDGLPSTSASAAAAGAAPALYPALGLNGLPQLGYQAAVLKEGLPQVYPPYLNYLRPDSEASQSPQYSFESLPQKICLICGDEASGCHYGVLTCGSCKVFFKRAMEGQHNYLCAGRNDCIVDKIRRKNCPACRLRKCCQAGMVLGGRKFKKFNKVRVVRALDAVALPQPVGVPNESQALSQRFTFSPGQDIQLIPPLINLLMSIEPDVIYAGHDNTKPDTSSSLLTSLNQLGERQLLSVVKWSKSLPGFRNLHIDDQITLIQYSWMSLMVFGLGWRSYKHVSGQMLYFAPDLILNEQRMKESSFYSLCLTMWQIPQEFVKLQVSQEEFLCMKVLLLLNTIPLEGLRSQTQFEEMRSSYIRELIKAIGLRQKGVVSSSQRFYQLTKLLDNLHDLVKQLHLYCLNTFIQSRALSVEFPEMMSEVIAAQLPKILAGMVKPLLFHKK
Outline: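 Stimulus R5020 at 1 nM final; cells HEK293T PR-UAS-bla; medium with 2% charcoal-stripped FBS; compound exposure 16 hr at 37C, 5% CO2; detection by FRET beta-lactamase substrate, 2 hr, room temperature.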

[11] = qHTS assay for identifying genotoxic compounds that show differential cytotoxicity against isogenic chicken DT40 cell lines with known DNA damage response pathways - Rev3 mutant cell line (AID 743014); details: chicken DT40 Rev3-/- viability, CellTiter-Glo, 40 h; activity, negative = cytotoxicity: at 68.4 µM (top of the series) unless noted; further: nearly all actives have a fitted effect of over 55% in size; further: potency means the concentration at half of the fitted maximal effect
[12] = qHTS assay to identify small molecule agonists of the progesterone receptor (PR) signaling pathway - cell viability counter screen (AID 1346799; calls by dose curve; further: nearly all actives have a fitted effect of over 45% in size; further: potency means the concentration at half of the fitted maximal effect)
Outline: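 Multiplexed viability read: CellTiter-Glo luminescence, 30 min RT, following LiveBLAzer FRET measurement on PR-UAS-bla HEK293T cells exposed to compounds 16 hr.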

[13] = qHTS assay to identify small molecule antagonists of the estrogen receptor alpha (ER-alpha) signaling pathway - cell viability counter screen (AID 743074; calls by dose curve;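 further: HEK293 cells carrying ER-alpha-UAS-bla reporter stimulated with 17beta-estradiol; nearly all actives have a fitted effect of over 45% in size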; further: potency means the concentration at half of the fitted maximal effect)
[14] = target: Cytochrome P450 1A2 (Homo sapiens) (UniProt P05177); experiment: Cytochrome P450 Family 1 Subfamily A Member 2 (CYP1A2) small molecule antagonists: luciferase reporter qHTS assay (AID 1671199); further: nearly all actives have a fitted effect of over 50% in size; further: potency means the concentration at half of the fitted maximal effect
Chain of UniProt P05177 (P05177 whole entry, looked up): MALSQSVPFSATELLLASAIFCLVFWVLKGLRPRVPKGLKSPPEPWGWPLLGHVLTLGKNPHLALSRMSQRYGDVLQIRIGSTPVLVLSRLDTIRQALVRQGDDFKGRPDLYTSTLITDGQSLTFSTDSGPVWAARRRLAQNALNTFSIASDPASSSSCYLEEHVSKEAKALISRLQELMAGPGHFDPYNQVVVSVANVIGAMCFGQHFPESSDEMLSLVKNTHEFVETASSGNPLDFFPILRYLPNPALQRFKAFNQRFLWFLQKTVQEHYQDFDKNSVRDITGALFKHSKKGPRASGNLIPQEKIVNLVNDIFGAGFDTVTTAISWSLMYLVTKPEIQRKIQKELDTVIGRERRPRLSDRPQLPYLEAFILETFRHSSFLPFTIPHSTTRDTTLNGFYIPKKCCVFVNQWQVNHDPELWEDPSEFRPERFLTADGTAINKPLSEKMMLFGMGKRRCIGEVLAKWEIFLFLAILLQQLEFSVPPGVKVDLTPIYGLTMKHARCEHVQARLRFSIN
Outline: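 Luminescence readout (relative luminescence units) after luciferin detection reagent, 20 min RT. Preceded by 1 h room-temperature CYP1A2 reaction with NADPH regeneration solution following 10 min compound preincubation with enzyme and proluciferin substrate. Furafylline positive control.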

[15] = target: Cytochrome P450 2C19 (Homo sapiens) (UniProt P33261); experiment: Cytochrome P450 Family 2 Subfamily C Member 19 (CYP2C19) small molecule antagonists: luciferase reporter qHTS assay (AID 1671197); further: nearly all actives have a fitted effect of over 65% in size; further: potency means the concentration at half of the fitted maximal effect
Chain of UniProt P33261 (P33261 whole entry, looked up): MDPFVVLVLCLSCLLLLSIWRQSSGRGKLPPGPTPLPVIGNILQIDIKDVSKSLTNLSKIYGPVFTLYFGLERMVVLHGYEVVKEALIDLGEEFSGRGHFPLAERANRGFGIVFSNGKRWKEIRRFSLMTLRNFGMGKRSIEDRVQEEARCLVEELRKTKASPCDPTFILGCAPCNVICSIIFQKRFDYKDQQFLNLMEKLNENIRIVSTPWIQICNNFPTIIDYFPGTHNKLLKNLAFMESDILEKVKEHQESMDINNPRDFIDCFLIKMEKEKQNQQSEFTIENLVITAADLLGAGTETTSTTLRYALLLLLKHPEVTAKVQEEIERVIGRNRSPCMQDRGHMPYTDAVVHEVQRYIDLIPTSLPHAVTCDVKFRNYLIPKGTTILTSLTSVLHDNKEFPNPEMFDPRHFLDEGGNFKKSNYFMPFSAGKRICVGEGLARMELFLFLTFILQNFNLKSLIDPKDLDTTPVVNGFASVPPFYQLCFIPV
Outline: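 First, compounds are pinned into enzyme-substrate mix and held 10 min at room temperature. Second, NADPH regeneration solution is added and plates incubate 1 h at 37C. Third, detection reagent is added and luminescence read after 20 min.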

[16] = target: Cytochrome P450 2C9 (Homo sapiens) (UniProt P11712); experiment: Cytochrome P450 Family 2 Subfamily C Member 9 (CYP2C9) small molecule antagonists: luciferase reporter qHTS assay (AID 1671198); further: on the % scale 0 is the no-effect control and ±100 the full control effect; nearly all actives have a fitted effect of over 50% in size
Chain of UniProt P11712 (P11712 whole entry, looked up): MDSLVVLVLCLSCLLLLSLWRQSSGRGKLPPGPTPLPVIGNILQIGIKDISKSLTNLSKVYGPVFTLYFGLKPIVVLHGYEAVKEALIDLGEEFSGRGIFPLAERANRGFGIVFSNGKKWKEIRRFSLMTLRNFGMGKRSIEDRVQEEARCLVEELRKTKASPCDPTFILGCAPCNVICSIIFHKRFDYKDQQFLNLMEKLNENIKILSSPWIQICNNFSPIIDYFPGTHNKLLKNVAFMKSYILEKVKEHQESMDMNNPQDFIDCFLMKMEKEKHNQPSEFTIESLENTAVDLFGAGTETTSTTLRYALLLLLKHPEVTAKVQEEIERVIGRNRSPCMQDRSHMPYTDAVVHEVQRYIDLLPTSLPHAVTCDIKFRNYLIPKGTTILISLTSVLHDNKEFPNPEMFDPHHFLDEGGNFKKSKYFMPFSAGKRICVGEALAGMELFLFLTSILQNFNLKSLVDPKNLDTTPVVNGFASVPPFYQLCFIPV
Outline: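 Enzyme-substrate mix preincubated with compound 10 min at room temperature; reaction started with NADPH regeneration solution, 1 h 37C. Luminescent luciferin product read after 20 min detection reagent.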

[17] = qHTS assay for identifying genotoxic compounds that show differential cytotoxicity against isogenic chicken DT40 cell lines with known DNA damage response pathways - wild type cell line (AID 743012); details: DT40 wild type chicken cells viability, CellTiter-Glo, 40 h; activity change, negative = cytotoxicity: at 68.4 µM (top of the series) unless noted; further: potency means the concentration at half of the fitted maximal effect; nearly all actives have a fitted effect of over 60% in size
Outline: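 CellTiter-Glo luminescence readout of viability in wild type DT40 cells after 40 h compound exposure at 37 C/5% CO2; 300 cells/well; reagent incubated 30 min at room temperature before reading.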

[18] = qHTS assay to identify small molecule antagonists of the peroxisome proliferator-activated receptor delta (PPARd) signaling pathway - cell viability counter screen (AID 743213); details: PPARd-bla HEK293H viability, CellTiter-Glo luminescence, 17 h; viability change, negative = cytotoxic: at 62 µM (top of the series) unless noted; further: on the % scale 0 is the no-effect control and ±100 the full control effect; nearly all actives have a fitted effect of over 50% in size
Outline: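 In this counter screen, HEK293H cells carrying a UAS-beta-lactamase reporter are co-treated with test compounds and 300 nM L165041 (final) for 17 h at 37 C; cell viability is quantified by CellTiter-Glo luminescence.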
Tags describe the fitted curve by direction and shape or compound fluorescence and quenching.

In the case of `N#Cc1ccc2c(c1)N(CCCN1CCC(O)CC1)c1ccccc1S2`, the Potency [1] is reported as active: 26.6 µM, the Potency [2] is reported as inconclusive: 6.68 µM [activator, full curve] and the Potency [3] is reported as active: 9.44 µM.

With `N[C@H]1CN(c2c(F)cc3c(=O)c(C(=O)O)cn(C4C[C@H]4F)c3c2Cl)CC12CC2` (stereo partly specified) the Potency [4] was “inactive”, the Potency [5] was “inactive” and the Potency [6] was inconclusive: 18.8 µM [cytotoxic, single point]. The ratio activity, negative = inhibition [7] was inconclusive: 25.2%, the activation [8] was inconclusive: -4.12% and the activity change, negative = inhibition [9] was inconclusive: 4.13%. The Potency [10] was “inactive”.

For `C=C[C@]1(C)C[C@@H](OC(=O)CSC(C)(C)CNC(=O)[C@H](N)C(C)C)[C@]2(C)[C@H](C)CC[C@]3(CCC(=O)[C@H]32)[C@@H](C)[C@@H]1O`, the activation [1] was inconclusive: -3.7%, the ratio activity, negative = MMP loss [2] was inconclusive: 77.4% and the Potency [4] was “inactive”. For the same compound, the Potency [11] was active: 0.335 µM, the Potency [5] was inconclusive: 23.7 µM [inhibitor, partial curve] and the Potency [6] was active: 5.96 µM.

With `CCCOCCOCCOCCO` the Potency [1] was inconclusive: 77 µM, the ratio activity, negative = MMP loss [2] was inconclusive: 49.1% and the Potency [11] was “inactive”. The Potency [3] was “inactive”, the Potency [9] was inconclusive: 19.5 µM [activator, partial curve, poor fit] and the Potency [10] was inconclusive: 54.5 µM [rising, partial curve]. For the same compound, the Potency [12] was inconclusive: 30.6 µM [cytotoxic].

In the case of `CC/C(C)=N/O`, the Potency [4] is reported as “inactive”, the Potency [11] is reported as inconclusive: 24.3 µM [cytotoxic, partial curve, poor fit] and the Potency [13] is reported as inconclusive: 19.2 µM [cytotoxic, partial curve, poor fit] and inactive. The Potency [14] was inconclusive: 71 µM [inhibitor, partial curve].

In the case of `CC(C)CCCC(C)CCCC(C)CCCCC(C)CCCC(C)CCCC(C)C` (stereo unspecified), the Potency [1] is reported as inconclusive: 0.668 µM [activator, single point], the ratio activity, negative = MMP loss [2] is reported as inconclusive: -8.46% and the Potency [4] is reported as inconclusive: 15.1 µM [activator, single point]. For the same compound, the Potency [15] was “inactive” and the Potency [16] was “inactive”.

For `CC(C)(C)C1(O)CCN2CC3c4ccccc4CCc4cccc(c43)C2C1` (stereo unspecified), the Potency [1] was inconclusive: 26.6 µM [falling, single point], the Potency [2] was inconclusive: 21.1 µM [inhibitor, partial curve] and the activity change, negative = inhibition [4] was inconclusive: -36.5%. The Potency [11] was active: 11.9 µM, the Potency [3] was active: 26.6 µM and the Potency [5] was inconclusive: 26.6 µM [inhibitor, partial curve].

With `O=C(O)c1c(Cl)c(Cl)c(Cl)c(Cl)c1-c1c2cc(I)c(=O)c(I)c-2oc2c(I)c(O)c(I)cc12` the Potency [1] was inconclusive: 29.8 µM [cytotoxic], the Potency [2] was inconclusive: 11.9 µM [activator, partial curve] and the Potency [17] was inconclusive: 21.1 µM [cytotoxic, partial curve]. The Potency [3] was active: 23.7 µM, the Potency [13] was inconclusive: 30.1 µM [cytotoxic, single point] and the Potency [5] was inconclusive: 13.3 µM [inhibitor, partial curve]. For the same compound, the Potency [6] was active: 23.7 µM.

In the case of `CC(=O)SCC(CC(=O)c1ccc(C)cc1)C(=O)O` (stereo unspecified), the Potency [7] is reported as “inactive”, the Potency [8] is reported as “inactive” and the Potency [14] is reported as “inactive”.

With `Cc1nccn1CC1CCc2c(c3ccccc3n2C)C1=O` (stereo unspecified) the Potency [17] was inconclusive: 29.8 µM [cytotoxic, single point], the Potency [6] was “inactive and inconclusive: 7.17 µM [cytotoxic, single point]” and the Potency [7] was “inactive”. For the same compound, the Potency [12] was “inactive” and the Potency [14] was inconclusive: 10.2 µM [inhibitor, full curve, poor fit].

For `CC(=O)Nc1ccccc1C`, the Potency [2] was “inactive”, the Potency [4] was “inactive” and the Potency [11] was “inactive”. For the same compound, the Potency [13] was inconclusive: 29.4 µM [rising, full curve, poor fit], the Potency [8] was “inactive” and the activity change, negative = inhibition [9] was inconclusive: 3.27% [at 78.8 µM]. The Potency [15] was inconclusive: 107 µM [inhibitor, single point].

In the case of `Cc1ccc(S(=O)(=O)NC(=O)NN2CC3CCCC3C2)cc1` (stereo unspecified), the Potency [1] is reported as “inactive”, the Potency [2] is reported as inconclusive: 0.804 µM [activator, single point] and the Potency [8] is reported as “inactive”. The Potency [18] was “inactive”, the Potency [9] was “inactive” and the Potency [16] was “inactive”.

For `CCCCc1ccc(Cl)cc1`, the Potency [1] was “inactive”, the Potency [2] was “inactive” and the activation [8] was inconclusive: 1.75%. The Potency [9] was inconclusive: 61.7 µM [fluorescent, single point] and the Potency [15] was “inactive”.

With `c1ccc2c(c1)Sc1ccccc1N2CCN1CCCC1` the Potency [1] was inconclusive: 4.73 µM [fluorescent, partial curve], the Potency [2] was inconclusive: 7.5 µM [activator, full curve] and the activity change, negative = inhibition [4] was inconclusive: 5.13%. For the same compound, the Potency [17] was active: 10.6 µM and the Potency [6] was inconclusive: 33.5 µM [cytotoxic, partial curve, poor fit].
